Experimental data from paper PMC4536226.
No constants are given. Whether binding was seen depends on the method and setting. In cells and extracts the contact can be indirect. Some binding calls cover weakened binding; strength is not graded here. Tags and fused reporters may be left off the sequences shown.

Amino acid sequences for entries named in this document (tags omitted). A change or cut given only in a name is not applied to a line headed by its entry. Chains listed by the source or under a name are the forms on record and can include a tag or linker.
UniProt P19538: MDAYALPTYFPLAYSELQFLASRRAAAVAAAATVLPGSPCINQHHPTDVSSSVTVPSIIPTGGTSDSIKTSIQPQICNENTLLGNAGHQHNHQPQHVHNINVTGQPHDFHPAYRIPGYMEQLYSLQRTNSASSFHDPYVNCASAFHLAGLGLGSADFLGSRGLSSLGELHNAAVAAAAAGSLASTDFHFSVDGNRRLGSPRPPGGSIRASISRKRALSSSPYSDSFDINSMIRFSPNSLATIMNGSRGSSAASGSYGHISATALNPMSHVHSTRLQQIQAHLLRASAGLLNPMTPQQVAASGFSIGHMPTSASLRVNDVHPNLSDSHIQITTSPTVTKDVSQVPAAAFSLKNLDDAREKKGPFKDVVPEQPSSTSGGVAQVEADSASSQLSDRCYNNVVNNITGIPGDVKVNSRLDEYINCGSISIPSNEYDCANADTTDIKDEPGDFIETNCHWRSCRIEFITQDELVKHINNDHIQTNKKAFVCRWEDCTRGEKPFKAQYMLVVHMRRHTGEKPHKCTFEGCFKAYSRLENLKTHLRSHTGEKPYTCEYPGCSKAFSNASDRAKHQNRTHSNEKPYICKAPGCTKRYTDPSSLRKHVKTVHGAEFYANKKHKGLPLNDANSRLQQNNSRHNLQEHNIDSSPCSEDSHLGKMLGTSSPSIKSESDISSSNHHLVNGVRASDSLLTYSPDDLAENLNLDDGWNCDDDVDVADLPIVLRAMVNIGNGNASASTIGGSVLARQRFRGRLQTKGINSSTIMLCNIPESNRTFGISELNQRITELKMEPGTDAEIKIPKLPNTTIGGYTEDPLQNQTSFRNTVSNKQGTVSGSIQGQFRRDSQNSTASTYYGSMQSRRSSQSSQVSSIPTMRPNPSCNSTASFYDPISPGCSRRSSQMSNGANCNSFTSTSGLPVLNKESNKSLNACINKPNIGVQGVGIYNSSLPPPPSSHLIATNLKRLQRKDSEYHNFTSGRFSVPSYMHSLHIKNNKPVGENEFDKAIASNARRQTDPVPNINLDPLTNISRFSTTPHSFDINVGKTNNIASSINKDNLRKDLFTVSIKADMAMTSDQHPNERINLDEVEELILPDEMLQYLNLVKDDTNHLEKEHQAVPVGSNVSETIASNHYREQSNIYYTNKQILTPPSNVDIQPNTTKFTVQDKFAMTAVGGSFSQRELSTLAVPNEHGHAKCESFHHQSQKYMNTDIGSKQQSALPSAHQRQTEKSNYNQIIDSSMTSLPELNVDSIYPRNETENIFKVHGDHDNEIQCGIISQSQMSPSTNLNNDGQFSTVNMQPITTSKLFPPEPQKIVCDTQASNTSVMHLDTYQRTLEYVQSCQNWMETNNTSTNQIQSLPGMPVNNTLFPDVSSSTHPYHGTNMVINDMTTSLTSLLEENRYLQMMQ
CiΔ269–346 (P19538, form named): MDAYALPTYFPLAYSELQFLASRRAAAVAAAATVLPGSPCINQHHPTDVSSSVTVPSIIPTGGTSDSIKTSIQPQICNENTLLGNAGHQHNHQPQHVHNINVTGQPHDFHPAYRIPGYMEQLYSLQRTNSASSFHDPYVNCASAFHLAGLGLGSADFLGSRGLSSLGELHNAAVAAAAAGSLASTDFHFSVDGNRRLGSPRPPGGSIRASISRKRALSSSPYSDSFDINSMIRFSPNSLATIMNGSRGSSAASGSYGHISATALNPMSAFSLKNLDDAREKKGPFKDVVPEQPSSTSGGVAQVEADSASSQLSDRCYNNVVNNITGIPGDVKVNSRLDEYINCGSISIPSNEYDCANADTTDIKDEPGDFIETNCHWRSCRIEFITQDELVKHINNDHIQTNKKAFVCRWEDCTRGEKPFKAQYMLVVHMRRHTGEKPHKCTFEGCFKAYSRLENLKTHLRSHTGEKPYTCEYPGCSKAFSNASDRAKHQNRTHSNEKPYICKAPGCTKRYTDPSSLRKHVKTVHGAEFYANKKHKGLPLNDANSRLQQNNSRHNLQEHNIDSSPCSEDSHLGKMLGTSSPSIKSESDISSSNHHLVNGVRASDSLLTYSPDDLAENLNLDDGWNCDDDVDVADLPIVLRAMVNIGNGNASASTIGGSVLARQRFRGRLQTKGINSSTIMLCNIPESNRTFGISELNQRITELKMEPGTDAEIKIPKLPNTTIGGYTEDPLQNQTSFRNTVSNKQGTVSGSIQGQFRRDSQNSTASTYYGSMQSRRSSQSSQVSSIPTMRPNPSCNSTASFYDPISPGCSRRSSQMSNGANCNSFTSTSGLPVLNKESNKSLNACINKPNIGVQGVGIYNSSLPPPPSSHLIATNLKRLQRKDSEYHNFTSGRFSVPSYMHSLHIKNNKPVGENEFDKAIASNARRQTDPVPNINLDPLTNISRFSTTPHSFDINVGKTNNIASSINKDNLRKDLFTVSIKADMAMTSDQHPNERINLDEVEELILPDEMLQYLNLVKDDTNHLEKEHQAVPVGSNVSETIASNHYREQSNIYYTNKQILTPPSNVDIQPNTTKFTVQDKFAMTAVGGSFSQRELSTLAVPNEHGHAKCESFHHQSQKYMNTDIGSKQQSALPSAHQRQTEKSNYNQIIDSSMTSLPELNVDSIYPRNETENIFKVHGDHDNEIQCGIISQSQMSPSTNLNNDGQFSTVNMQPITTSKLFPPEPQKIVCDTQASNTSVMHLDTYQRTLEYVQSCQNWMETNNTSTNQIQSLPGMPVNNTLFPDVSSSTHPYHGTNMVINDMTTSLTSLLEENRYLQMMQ
CiΔ212–268 (P19538, form named): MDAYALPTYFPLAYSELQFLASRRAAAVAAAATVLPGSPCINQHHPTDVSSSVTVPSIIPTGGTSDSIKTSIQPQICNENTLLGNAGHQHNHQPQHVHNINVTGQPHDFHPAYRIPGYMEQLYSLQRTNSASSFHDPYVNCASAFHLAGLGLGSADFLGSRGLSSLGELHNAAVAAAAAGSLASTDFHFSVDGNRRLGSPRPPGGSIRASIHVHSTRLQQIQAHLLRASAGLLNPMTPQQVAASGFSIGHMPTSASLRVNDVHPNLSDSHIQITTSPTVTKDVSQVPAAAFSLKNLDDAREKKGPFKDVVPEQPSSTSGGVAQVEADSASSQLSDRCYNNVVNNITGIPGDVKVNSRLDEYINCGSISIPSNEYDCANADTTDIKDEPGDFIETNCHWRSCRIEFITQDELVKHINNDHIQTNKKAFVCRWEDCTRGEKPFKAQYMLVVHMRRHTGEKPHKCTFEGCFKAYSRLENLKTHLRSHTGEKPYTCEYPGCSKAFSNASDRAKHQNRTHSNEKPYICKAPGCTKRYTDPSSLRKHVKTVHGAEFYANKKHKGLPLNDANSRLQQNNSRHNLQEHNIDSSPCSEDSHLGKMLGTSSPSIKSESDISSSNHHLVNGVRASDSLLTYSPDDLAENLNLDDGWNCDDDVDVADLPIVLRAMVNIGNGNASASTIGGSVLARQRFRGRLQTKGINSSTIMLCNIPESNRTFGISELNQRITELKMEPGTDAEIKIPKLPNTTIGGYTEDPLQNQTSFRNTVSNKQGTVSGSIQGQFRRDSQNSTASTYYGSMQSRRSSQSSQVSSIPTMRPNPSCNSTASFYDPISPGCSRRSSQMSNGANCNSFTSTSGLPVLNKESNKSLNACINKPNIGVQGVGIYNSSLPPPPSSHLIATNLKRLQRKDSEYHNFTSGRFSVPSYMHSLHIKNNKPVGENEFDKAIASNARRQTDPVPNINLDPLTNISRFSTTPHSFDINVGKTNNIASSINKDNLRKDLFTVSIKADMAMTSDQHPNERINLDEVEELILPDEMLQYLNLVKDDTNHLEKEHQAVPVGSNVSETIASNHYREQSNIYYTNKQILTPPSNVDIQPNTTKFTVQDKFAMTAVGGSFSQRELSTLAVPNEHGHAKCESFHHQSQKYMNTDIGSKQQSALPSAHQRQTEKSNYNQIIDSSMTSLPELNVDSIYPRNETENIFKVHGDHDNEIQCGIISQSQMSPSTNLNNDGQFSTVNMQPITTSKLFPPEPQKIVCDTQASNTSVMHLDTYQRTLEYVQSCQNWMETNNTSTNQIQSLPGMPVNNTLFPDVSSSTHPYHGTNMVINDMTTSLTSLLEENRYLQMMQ

Experiments:
[1] = molecular target: T1, Myc-tagged Cos2 (Myc-Cos2) (Drosophila) (UniProt O16844); assay: co-IP; S2R+ cells transfected with FLAG-Ci variants and Myc-Cos2, and with dsRNA against Su(fu); either anti-FLAG or anti-Myc IP; lysis in PBS with 1.0% Triton X-100
T1 sequence: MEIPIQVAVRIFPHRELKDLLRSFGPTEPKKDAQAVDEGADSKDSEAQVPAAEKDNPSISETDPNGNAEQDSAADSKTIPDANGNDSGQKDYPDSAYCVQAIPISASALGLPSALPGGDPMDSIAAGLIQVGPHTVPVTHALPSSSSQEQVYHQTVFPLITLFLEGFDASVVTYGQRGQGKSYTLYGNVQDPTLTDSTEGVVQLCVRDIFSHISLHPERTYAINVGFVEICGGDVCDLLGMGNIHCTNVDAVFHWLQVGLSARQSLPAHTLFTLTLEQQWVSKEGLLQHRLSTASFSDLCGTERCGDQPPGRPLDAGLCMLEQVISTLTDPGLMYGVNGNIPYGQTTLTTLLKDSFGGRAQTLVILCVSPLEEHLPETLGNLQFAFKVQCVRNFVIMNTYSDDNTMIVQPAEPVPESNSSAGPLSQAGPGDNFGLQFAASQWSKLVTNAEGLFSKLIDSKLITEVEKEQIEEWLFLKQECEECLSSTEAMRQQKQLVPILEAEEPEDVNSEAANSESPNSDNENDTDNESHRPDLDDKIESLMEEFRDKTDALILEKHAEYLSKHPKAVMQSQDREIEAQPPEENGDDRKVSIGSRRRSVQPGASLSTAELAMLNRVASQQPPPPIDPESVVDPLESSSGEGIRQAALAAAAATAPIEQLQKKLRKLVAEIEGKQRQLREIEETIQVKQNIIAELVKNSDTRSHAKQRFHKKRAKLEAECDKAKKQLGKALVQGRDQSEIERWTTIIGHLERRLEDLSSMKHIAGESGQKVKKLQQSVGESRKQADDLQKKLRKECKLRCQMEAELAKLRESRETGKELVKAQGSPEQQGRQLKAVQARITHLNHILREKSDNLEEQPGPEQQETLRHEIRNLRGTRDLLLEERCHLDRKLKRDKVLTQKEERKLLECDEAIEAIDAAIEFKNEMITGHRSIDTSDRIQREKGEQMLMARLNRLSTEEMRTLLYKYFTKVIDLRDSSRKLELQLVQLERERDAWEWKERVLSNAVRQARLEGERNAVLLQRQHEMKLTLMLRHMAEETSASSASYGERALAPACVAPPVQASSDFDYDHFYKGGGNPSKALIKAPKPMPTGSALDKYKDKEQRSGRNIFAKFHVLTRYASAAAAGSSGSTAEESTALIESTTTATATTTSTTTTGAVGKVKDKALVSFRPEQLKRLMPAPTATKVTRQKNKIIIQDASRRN

[2] = molecular target: T2, V5-tagged Suppressor of fused (V5-Su(fu)) (Drosophila melanogaster) (UniProt Q9VG38); assay: co-IP; S2R+ cells transfected with FLAG-Ci variants and V5-Su(fu), and with dsRNA against Cos2 to deplete endogenous Cos2; lysis in PBS with 1.0% Triton X-100
T2 sequence: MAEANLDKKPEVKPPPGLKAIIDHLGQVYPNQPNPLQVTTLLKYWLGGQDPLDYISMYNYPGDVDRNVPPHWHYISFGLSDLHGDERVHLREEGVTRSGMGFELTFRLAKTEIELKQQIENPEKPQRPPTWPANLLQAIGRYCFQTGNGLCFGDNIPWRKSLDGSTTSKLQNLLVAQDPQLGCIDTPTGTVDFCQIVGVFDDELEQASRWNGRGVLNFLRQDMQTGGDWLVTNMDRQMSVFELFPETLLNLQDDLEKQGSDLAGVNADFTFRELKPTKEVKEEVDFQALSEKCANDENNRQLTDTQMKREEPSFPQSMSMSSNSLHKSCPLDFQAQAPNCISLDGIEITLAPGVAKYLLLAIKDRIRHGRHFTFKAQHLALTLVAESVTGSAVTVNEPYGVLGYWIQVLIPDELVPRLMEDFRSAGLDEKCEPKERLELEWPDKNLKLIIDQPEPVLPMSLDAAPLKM

Substance | binding [1] | binding [2]
N-terminally FLAG-tagged Ci (FLAG-Ci) (from UniProt P19538 1-1397) | binds | binds
CiΔ269–346 (from UniProt P19538 1-1397) | binds | –
CiΔ212–268 (from UniProt P19538 1-1397) | binds | binds weakly
Ci347C (from UniProt P19538 347-1397) (domain or fragment) | binds | –
